Experimental data as given in PMC7819943, “Rice protein-binding microarrays: a tool to detect cis-acting elements near promoter regions in rice”.
Some of the results follow.

target: T1, OsWOX13 (Oryza sativa, UniProt Q5QMM3 1-267); test: protein-binding microarray (RPBM); PBS, 2% BSA, 51.3 ng/ul salmon testes DNA, 50 uM zinc acetate, 200 nM TF, 25 C, 1 h; high values mean tight binding; conditions: protein: recombinant; tags: N-terminal polyhistidine and DsRed monomer fusion (pET32a); label: CyDye5-dUTP incorporated in the synthesized complementary strand; 3' TTTTT single-stranded linker to array surface; dsDNA, one strand shown
T1 sequence: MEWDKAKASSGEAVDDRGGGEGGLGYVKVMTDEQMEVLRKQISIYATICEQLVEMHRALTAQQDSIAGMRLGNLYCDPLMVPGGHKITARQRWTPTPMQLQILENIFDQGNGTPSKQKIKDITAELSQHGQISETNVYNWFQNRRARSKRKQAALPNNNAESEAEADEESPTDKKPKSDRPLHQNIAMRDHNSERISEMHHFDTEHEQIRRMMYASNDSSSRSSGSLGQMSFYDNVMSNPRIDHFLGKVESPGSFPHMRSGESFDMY
How it was run: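 Transcription factors were made in E. coli BL21-CodonPlus as N-terminal fusions to a polyhistidine tag and DsRed, then purified on Ni–NTA. After primer extension with Cy5-dUTP and blocking with 2% BSA, a custom Agilent array was exposed for 1 h at 25 °C to 200 nM protein in PBS, 2% BSA, salmon testes DNA and 50 µM zinc acetate. Washed arrays were scanned on an Axon 4000B, and the binding signal is per-feature fluorescence intensity in arbitrary units.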

Compared with “TATTAATGGTGACTTGGTGATTATGGAAGAAGTTAACCCGCGGAGTCACCTAGTGCAG”, “TCATGGCCTAATTAGTCTCAAAAGATTCGTCTCGCGATTTCGGAGTCACCTAGTGCAG” is lower in binding signal: 12300 fluorescence intensity (a.u.) for the first, 4840 fluorescence intensity (a.u.) for the second.

Compared with “ATAGATTAAATGATAAAATATGAATAATACTTTATGCGTACGGAGTCACCTAGTGCAG”, “AGATGAATTTATTAAGCCTAATTAATACATCATTAGTACACGGAGTCACCTAGTGCAG” is lower in binding signal: 24500 fluorescence intensity (a.u.) for the first, 5650 fluorescence intensity (a.u.) for the second.

First: TGAAACATGTGCTTGATTATGTTGACATGTTGAAGAAGTACGGAGTCACCTAGTGCAG
Second: ATAGCTTAACTGGTTACATTCCGTGTGATGGAACCAGCTCCGGAGTCACCTAGTGCAG
The binding signal of the first is higher: 6600 fluorescence intensity (a.u.) for the first, 4170 fluorescence intensity (a.u.) for the second.

Going from “ATATTAAATTAATCATTAAATGGTCTGGTTTTAATATTGTCGGAGTCACCTAGTGCAG” to “TTATATGATTGCTAACAGATGAACGTCTTGTGTTGCTTTGCGGAGTCACCTAGTGCAG”, the binding signal rises from 31300 fluorescence intensity (a.u.) to 46600 fluorescence intensity (a.u.).

Going from “CTACCATCCGGATCAAACATCAATCAACCAAAACAGCCTCCGGAGTCACCTAGTGCAG” to “TTCTTAAAGGTAATTGGATGTGCAGTATAATTCTTAAAAGCGGAGTCACCTAGTGCAG”, the binding signal falls from 7770 fluorescence intensity (a.u.) to 6420 fluorescence intensity (a.u.).

First: AACTTAATCACAACCCTCCACCACTCACTTCTAACTACTTCGGAGTCACCTAGTGCAG
Second: ACCAAATTAATTAACCCTATCTCTCGATCTCTCCCTCTCTCGGAGTCACCTAGTGCAG
The binding signal of the first is lower: 3550 fluorescence intensity (a.u.) for the first, 37200 fluorescence intensity (a.u.) for the second.

Compared with “GATCGATCATTAGATTTATTTATAAGTCAAATTAATAAGCCGGAGTCACCTAGTGCAG”, “TTTAATTCCGAATTTCAGTTATTTCCTAATTGTATTTCTACGGAGTCACCTAGTGCAG” is higher in binding signal: 3710 fluorescence intensity (a.u.) for the first, 6130 fluorescence intensity (a.u.) for the second.

Compared with “GTAGTGTTGACTGGAAATCAGAGATATTGGAGGCTGCAGACGGAGTCACCTAGTGCAG”, “TCCATGGCAATCATTGGTTGAGTCCGGTGAAGCCACCAACCGGAGTCACCTAGTGCAG” is higher in binding signal: 8080 fluorescence intensity (a.u.) for the first, 15500 fluorescence intensity (a.u.) for the second.

Compared with “TTTGCATTTGTGTGATTAGCGACGGGCGATAGCGATCGAGCGGAGTCACCTAGTGCAG”, “GTAATTTGTTTTGTTATTAGACTACGTTTAATACTTCAAACGGAGTCACCTAGTGCAG” is lower in binding signal: 5420 fluorescence intensity (a.u.) for the first, 3740 fluorescence intensity (a.u.) for the second.

First: GCGGAGGAGGTGGTGGTGGTGGAGGAGGAGGAGGCCAAGGCGGAGTCACCTAGTGCAG
Second: ATTAATAAATAATTTATTATAAATTAAATTTATTGGATGACGGAGTCACCTAGTGCAG
The binding signal of the first is lower: 4960 fluorescence intensity (a.u.) for the first, 40300 fluorescence intensity (a.u.) for the second.

Compared with “AATCAAGAGATGATTGATAATTGTTTATATGGATGAATTACGGAGTCACCTAGTGCAG”, “ACTCTCTTAACTGATTATCGCCGCGTACAGTATATGCAAGCGGAGTCACCTAGTGCAG” is lower in binding signal: 24100 fluorescence intensity (a.u.) for the first, 9530 fluorescence intensity (a.u.) for the second.

Compared with “AATGACAGGGGTAATAAAGGTTATTTCCTTGTTGTTTCGCCGGAGTCACCTAGTGCAG”, “ATATGATGTACCTAATTATGTGAATAAGATTATTTACAATCGGAGTCACCTAGTGCAG” is higher in binding signal: 6710 fluorescence intensity (a.u.) for the first, 23400 fluorescence intensity (a.u.) for the second.

Compared with “TCTTAAATTAACTTTAAAATTAGATTTGAAAATTCAAATTCGGAGTCACCTAGTGCAG”, “GCTTGGCACTTGATTTGCTTAGTTTAGCAATATCATCATTCGGAGTCACCTAGTGCAG” is lower in binding signal: 15200 fluorescence intensity (a.u.) for the first, 3740 fluorescence intensity (a.u.) for the second.

Going from “TGTTGACAAAATTAGCTGTTGCAACGCATACAGACTTCAACGGAGTCACCTAGTGCAG” to “TCGTCGATGATTACAGCTGTTTCATGTGGTTGTCACTGCTCGGAGTCACCTAGTGCAG”, the binding signal rises from 7410 fluorescence intensity (a.u.) to 7700 fluorescence intensity (a.u.).

Going from “ATCATAAATTTCTCTTATATAATTTCGCTTATATGGTTATCGGAGTCACCTAGTGCAG” to “CACATCCATATTTGCAATTAATTTACAACCTAATTTACATCGGAGTCACCTAGTGCAG”, the binding signal falls from 6670 fluorescence intensity (a.u.) to 3360 fluorescence intensity (a.u.).

Going from “GTGCCAATCAATAATGCTCAGGAAGAGCAAATATGGACCGCGGAGTCACCTAGTGCAG” to “AAGTAATTATTAATTCTTTTCCTATCATTTGATTCATTGTCGGAGTCACCTAGTGCAG”, the binding signal rises from 16500 fluorescence intensity (a.u.) to 29000 fluorescence intensity (a.u.).

Compared with “TTTATCTAATTAAAATATATTTATAGCTGACTAATAGTCTCGGAGTCACCTAGTGCAG”, “AGCAACGGATTAACATATGATTAATTAAGTATTAATAAAACGGAGTCACCTAGTGCAG” is lower in binding signal: 12200 fluorescence intensity (a.u.) for the first, 9340 fluorescence intensity (a.u.) for the second.

First: AACACATTGGATTGATTGATCTGTCGCGGAACAGATTGACCGGAGTCACCTAGTGCAG
Second: TAGCCGTCCAAATCAAATCAGTGGCTAGGATTGCTTGACGCGGAGTCACCTAGTGCAG
The binding signal of the first is higher: 52300 fluorescence intensity (a.u.) for the first, 3870 fluorescence intensity (a.u.) for the second.

Compared with “TGCTTCTAAATTAGTCACTCTGATTTGCCCTTGCCACCAACGGAGTCACCTAGTGCAG”, “ACCAAGTAATTGATATCTAGAAATCCGATACCTAGTACCACGGAGTCACCTAGTGCAG” is higher in binding signal: 25800 fluorescence intensity (a.u.) for the first, 55000 fluorescence intensity (a.u.) for the second.

Compared with “TTGTTGGAATTGAAGTGGATTACATATATGTAGTGCGTTCCGGAGTCACCTAGTGCAG”, “AGTAGAATTTATGTTAATGTGGATAAAATTTGACATCAAACGGAGTCACCTAGTGCAG” is higher in binding signal: 3830 fluorescence intensity (a.u.) for the first, 4620 fluorescence intensity (a.u.) for the second.

First: CCCGGTTTGATCGATCAATCAGCTCATGATCAACACTAAACGGAGTCACCTAGTGCAG
Second: CAGTAACTGGCAGGTTTGACGGACTCCAGGTCTTGCCTCTCGGAGTCACCTAGTGCAG
The binding signal of the first is higher: 15600 fluorescence intensity (a.u.) for the first, 9020 fluorescence intensity (a.u.) for the second.
